{"source": "the supplement of paper PMC12217912", "parents": {"B1": {"name": "TEV protease; numbered along this chain (parent)", "chain": "MGESLFKGPRDYNPISSSICHLTNESDGHTTSLYGIGFGPFIITNKHLFRRNNGTLVVQSLHGVFKVKDTTTLQQHLVDGRDMIIIRMPKDFPPFPQKLKFREPQREERICLVTTNFQTKSMSSMVSDTSCTFPSGDGIFWKHWIQTKDGQCGSPLVSTRDGFIVGIHSASNFTNTNNYFTSVPKNFMELLTNQEAQQWVSGWRLNADSVLWGGHKVFMVKPEEPFQPVKEATQL"}}, "note": "This is one part of the list. Sequences were assembled here from the parent chain. Inactive controls read about 0.05.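 Note: Bxb1 expression induced with 0.2% (w/v) L-rhamnose at OD600 near 0.5, cultures sampled hourly, flipped fraction per protease–substrate barcode pair counted by paired-end Illumina sequencing.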"}
{"variants_of": "B1", "experiment": "raw area under fraction-flipped curve 0-4 h after induction (AUC4h, not background-subtracted), DNA-recorder readout of cleavage of the substrate (dimensionless); higher = more cleavage of the substrate by the protease variant", "conditions": "temperature: 34 °C; time window: 0-4 h after rhamnose induction"}
{"variant": "MGESLFKGPRDYNPISSSICHLTNESDGHTTSLYGIGFGPFIITNKHLFRRNNGTLVVQSLHGVFKVKDTTTLQQHLVDGRDMIIIRMPKDFPPFPQKLKFREPQREERICLVTTNFQTKSMSSMVSDTSCTFPSGDGIFWKHWIQTKDGQCGSPLVSTRDGFIVGIHSASNFTNTNNYFTSVPKNFMELLTNQEAQQWVSGWRLNADSVLWGGHKVFMVKPEEPFNPVKEATQL", "note": "[Q227N]", "area with substrate ENLYFQC": 0.0806, "area with substrate ENLYFQF": 0.0874, "area with substrate ENLYFQG": 0.112, "area with substrate ENLYFQH": 0.0683, "area with substrate ENLYFQI": 0.0566, "area with substrate ENLYFQK": 0.0744, "area with substrate ENLYFQL": 0.0641, "area with substrate ENLYFQM": 0.0805, "area with substrate ENLYFQR": 0.0594, "area with substrate ENLYFQS": 0.11, "area with substrate ENLYFQT": 0.0738}
{"variant": "MGESLFKGPRDYNPISSSICHLTNESDGHTTSLYGIGFGPFIITNKHLFRRNNGTLVVQSLHGVFKVKDTTTLQQHLVDGRDMIIIRMPKDFPPFPQKLKFREPQREERICLVTTNFQTKSMSSMVSDTSCTFPSGDGIFWKHWIQTKDGQCGSPLVSTRDGFIVGIHSASNFTNTNNYFTSVPKNFMELLTNQEAQQWVSGWRLNADSVLWGGHKVFMVKPEEPFQPVKEATML", "note": "[Q234M]", "area with substrate ENLYFQC": 0.123, "area with substrate ENLYFQF": 0.0514, "area with substrate ENLYFQG": 0.0432, "area with substrate ENLYFQH": 0.0785, "area with substrate ENLYFQK": 0.0655, "area with substrate ENLYFQL": 0.095, "area with substrate ENLYFQM": 0.0787, "area with substrate ENLYFQN": 0.0565, "area with substrate ENLYFQP": 0.064, "area with substrate ENLYFQS": 0.0919, "area with substrate ENLYFQT": 0.0572, "area with substrate ENLYFQW": 0.0949}
{"variant": "MGESLFKGPRDYNPISSSICHLTNESDGHTTSLYGIGFGPFIITNKHLFRRNNGTLVVQSLHGVFKVKDTTTLQQHLVDGRDMIIIRMPKDFPPFPQKLKFREPQREERICLVTTNFQTKSGSSMVSDTSCTFPSGDGIFWKHWIQTKDGQCGSPLVSTRDGFIVGIHSASNFTNTNNYFTSVPKNFMELLTNQEAQQWVSGWRLNADSVLWGGHKVFMVKPEEPFQPVKEATQL", "note": "[M122G]", "area with substrate ENLYFQD": 0.0786, "area with substrate ENLYFQG": 0.098, "area with substrate ENLYFQL": 0.0541, "area with substrate ENLYFQM": 0.073, "area with substrate ENLYFQR": 0.075, "area with substrate ENLYFQS": 0.103, "area with substrate ENLYFQT": 0.071}
{"variant": "MGESLFKGPRDYNPISSSICHLTNESDGHTTSLYGIGFGPFIITNKHLFRRNNGTLVVQSLHGVFKVKDTTTLQQHLVDGRDMIIIRMPKDFPPFPQKLKFREPQREERICLVTTNFQTKSMSSMVSDTSCTFPSGDGIFWKHWIQTKDGQCGSPLVSTRDGFIVGIHSASNFTNTNNYFTSVPKNFMELLTNQEAQQWVSGWRLNADSVLWGGHKVFMVKREEPFQPVKEATQL", "note": "[P222R]", "area with substrate ENLYFQC": 0.0943, "area with substrate ENLYFQG": 0.089, "area with substrate ENLYFQH": 0.0829, "area with substrate ENLYFQI": 0.0549, "area with substrate ENLYFQK": 0.0852, "area with substrate ENLYFQL": 0.061, "area with substrate ENLYFQM": 0.0858, "area with substrate ENLYFQN": 0.0638, "area with substrate ENLYFQP": 0.064, "area with substrate ENLYFQR": 0.0637, "area with substrate ENLYFQS": 0.0895, "area with substrate ENLYFQT": 0.0784, "area with substrate ENLYFQV": 0.0765}
{"variant": "MGESLFKGPRDYNPISSSICHLTNESDGHTTSLYGIGFGPFIITNKHLFRRNNGTLVVQSLHGVFKVKDTTTLQQHLVDGRDVIIIRMPKDFPPFPQKLKFREPQREERICLVTTNFQTKSMSSMVSDTSCTFPSGDGIFWKHWIQTKDGQCGSPLVSTRDGFIVGIHSASNFTNTNNYFTSVPKNFMELLTNQEAQQWVSGWRLNADSVLWGGHKVFMVKPEEPFQPVKEATQL", "note": "[M83V]", "area with substrate ENLYFQD": 0.0666, "area with substrate ENLYFQL": 0.0688, "area with substrate ENLYFQS": 0.0716, "area with substrate ENLYFQW": 0.0549}
{"variant": "MGESLFKGPRDYNPISSSICHLTNESDGHTTSLYQIGFGPFIITNKHLFRRNNGTLVVQSLHGVFKVKDTTTLQQHLVDGRDMIIIRMPKDFPPFPQKLKFREPQREERICLVTTNFQTKSMSSMVSDTSCTFPSGDGIFWKHWIQTKDGQCGSPLVSTRDGFIVGIHSASNFTNTNNYFTSVPKNFMELLTNQEAQQWVSGWRLNADSVLWGGHKVFMVKPEEPFQPVKEATQL", "note": "[G35Q]", "area with substrate ENLYFQD": 0.0526, "area with substrate ENLYFQG": 0.0506, "area with substrate ENLYFQH": 0.0631, "area with substrate ENLYFQI": 0.0401, "area with substrate ENLYFQL": 0.0387, "area with substrate ENLYFQM": 0.0398, "area with substrate ENLYFQN": 0.0559, "area with substrate ENLYFQQ": 0.0367, "area with substrate ENLYFQS": 0.0452, "area with substrate ENLYFQW": 0.0458}
{"variant": "MGESLFKGPRDYNPISSSICHLTNESDGHTTSLYGIGFGPFIITNKHLFRRNNGTLVVQSLHGVFKVKDTTTLQQHLVDGRDMIIIRMPKDFPPFPQKLKFREPQREERICLVTTNFQTKSMSSMVSDTSCTFPSGDGIFWKHWIQTKDGQCGSPLVSTRDGFIVGIHSASNFTNTNNYFTSVPKNFMELLTNQEAQQWVSGWRLNADSVLWGGHKRFMVKPEEPFQPVKEATQL", "note": "[V217R]", "area with substrate ENLYFQC": 0.0603, "area with substrate ENLYFQD": 0.0528, "area with substrate ENLYFQI": 0.0627, "area with substrate ENLYFQL": 0.0529, "area with substrate ENLYFQP": 0.0544, "area with substrate ENLYFQR": 0.0538, "area with substrate ENLYFQS": 0.0577}
{"variant": "MGESLFKGPRDYNPISSSICHLTNESDGHTTSLYGIGFGPFIITNKHLFRRNNGTLVVQSLHGVFKVKDTTTLQQHLVDGRDMIIIRMPKDFPPFPQKLKFREPQREERICLVTTNFQTKSMSSMVSDTSCTFPSGDGIFWKHWIQTKDGQCGSPLVSTRDGFIVGIHSASNFTNTNNYFTSVPKNFMELLTNQEAQQWVSGWRLNADSVLWGGHKVFMVKPEEPFQAVKEATQL", "note": "[P228A]", "area with substrate ENLYFQC": 0.098, "area with substrate ENLYFQE": 0.0791, "area with substrate ENLYFQG": 0.0931, "area with substrate ENLYFQH": 0.0899, "area with substrate ENLYFQK": 0.0587, "area with substrate ENLYFQL": 0.0703, "area with substrate ENLYFQM": 0.0884, "area with substrate ENLYFQN": 0.0682, "area with substrate ENLYFQR": 0.0519, "area with substrate ENLYFQS": 0.102, "area with substrate ENLYFQT": 0.0693, "area with substrate ENLYFQY": 0.0743}
{"variant": "MGESLFKGPRDYNPISSSICHLTNESDGHTTSLYGIGFGPFIITNKHLFRRNNGTLVVQSLHGVFKVKDTTTLQQHLVDGRDMIIIRMPKDFPPFPQKLKFREPQREERICLVTTNFQTKSMSSMVSDTSCTFPSGDGIFWKHWIQTKDGQCGSPLVSTRDGFIVGIHSASNFTNTNNYFTSVPKNFMELLTNQEAQQWVSGWRLNADSVLWGGHKVFMVKPEEPFQEVKEATQL", "note": "[P228E]", "area with substrate ENLYFQC": 0.116, "area with substrate ENLYFQD": 0.0863, "area with substrate ENLYFQF": 0.0428, "area with substrate ENLYFQK": 0.0657, "area with substrate ENLYFQL": 0.0617, "area with substrate ENLYFQP": 0.046, "area with substrate ENLYFQS": 0.106, "area with substrate ENLYFQV": 0.071}
{"variant": "MGESLFKGPRDYNPISSSICHLTNESDGHTTSLYGIGFGPFIITNKHLFRRNNGTLVVQSLHGVFKVKDTTTLQQHLVDGRDMIIIRMPKDFPPFPQKLKFREPQREERICLVTTNFQTKSMSSMVSDTSCTFPSGDGIFWKHWIQTKDGQCGSPLVSTRDGFIVGIHSASNFTNTNNYFTSVPKNFMELLTNQEAQQWVSGWRLNADSVLWGGHKVFMVAPEEPFQPVKEATQL", "note": "[K221A]", "area with substrate ENLYFQC": 0.1, "area with substrate ENLYFQG": 0.0924, "area with substrate ENLYFQL": 0.0448, "area with substrate ENLYFQR": 0.0638, "area with substrate ENLYFQS": 0.0953}
{"variant": "MGESLFKGPRDYNPISSSICHLTNESDGHTTSLYGIGFGPFIITNKHLFRRNNGTLVVQSLHGVFKVKDTTTLQQHLVDGRDMIIIRMPKDFPPFPQKLKFREPQREERICLVTVNFQTKSMSSMVSDTSCTFPSGDGIFWKHWIQTKDGQCGSPLVSTRDGFIVGIHSASNFTNTNNYFTSVPKNFMELLTNQEAQQWVSGWRLNADSVLWGGHKVFMVKPEEPFQPVKEATQL", "note": "[T115V]", "area with substrate ENLYFQD": 0.0608, "area with substrate ENLYFQG": 0.0939, "area with substrate ENLYFQM": 0.0944, "area with substrate ENLYFQP": 0.0521, "area with substrate ENLYFQR": 0.0546, "area with substrate ENLYFQS": 0.101, "area with substrate ENLYFQT": 0.0747}
